Measured values reported in PubChem BioAssay AID1460 (National Center for Advancing Translational Sciences (NCATS), 2008).
Among all 270,000 compounds or so, about 5,800 (2.1%) were called active. This list was built around the results that the source calls inconclusive (neither active nor inactive); the mix of calls is not that of the screen. Calls follow the shape of the dose curve; as a rule, active = well fitted inhibition curve with a large enough effect; inconclusive = small, poorly fitted or top-dose-only effect; inactive = flat fitted curve, though single readings scatter. Potencies beside an inconclusive call are fits to weak or partial responses and may not hold up.

Molecular target: Microtubule-associated protein tau (Homo sapiens) (UniProt P10636)
Assay: qHTS for Inhibitors of Tau Fibril Formation, Thioflavin T Binding; also: nearly all actives have a fitted effect of over 55% in size
Settings: recombinant tau K18 P301L, heparin-induced fibrillization, ThT fluorescence; series mostly up to 57.4 µM; activity, negative = inhibition: at the top concentration
Summary of the method: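 Using a mix of unlabeled (15 uM) and Alexa 594-labeled (0.24 uM) tau K18 P301L, heparin-triggered fibrillization over 6 hr at 37 C was scored by ThT fluorescence.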
% is scaled to controls: 0 for no effect and ±100 for the full control effect; potency is read from the fitted curve at half-maximal effect; tags tell the direction and shape of the fitted curve.

Sequence of UniProt P10636 (P10636 whole entry, looked up): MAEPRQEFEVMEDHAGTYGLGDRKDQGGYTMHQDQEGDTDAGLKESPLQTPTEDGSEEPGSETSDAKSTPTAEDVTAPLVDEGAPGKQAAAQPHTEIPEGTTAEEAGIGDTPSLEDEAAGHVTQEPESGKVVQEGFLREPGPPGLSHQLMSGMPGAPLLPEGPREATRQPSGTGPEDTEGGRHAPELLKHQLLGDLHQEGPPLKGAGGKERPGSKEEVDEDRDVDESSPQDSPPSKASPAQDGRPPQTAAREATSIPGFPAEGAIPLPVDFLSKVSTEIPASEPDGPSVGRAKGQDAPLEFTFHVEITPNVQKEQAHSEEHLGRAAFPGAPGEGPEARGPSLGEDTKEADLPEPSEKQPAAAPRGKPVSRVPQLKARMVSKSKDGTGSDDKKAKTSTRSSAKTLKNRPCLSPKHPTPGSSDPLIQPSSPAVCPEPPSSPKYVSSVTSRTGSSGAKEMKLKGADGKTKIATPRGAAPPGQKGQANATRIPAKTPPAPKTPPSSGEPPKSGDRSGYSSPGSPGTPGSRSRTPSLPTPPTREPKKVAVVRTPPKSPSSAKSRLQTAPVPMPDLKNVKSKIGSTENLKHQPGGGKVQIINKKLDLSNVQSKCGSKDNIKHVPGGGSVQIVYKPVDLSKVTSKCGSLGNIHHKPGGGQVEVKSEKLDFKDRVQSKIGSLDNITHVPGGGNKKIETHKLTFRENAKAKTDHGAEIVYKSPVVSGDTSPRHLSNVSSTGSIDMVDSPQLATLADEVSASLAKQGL

Structure (SMILES) | activity, negative = inhibition | Potency
CCCOc1ccc(C2c3c(-c4ccccc4O)n[nH]c3C(=O)N2Cc2ccncc2)cc1OCC (configuration not stated) | inactive: 0.367% | 
Cc1nc(Nc2ccccc2)sc1C(=O)c1ccccc1 |  | inconclusive: 7.08 µM [inhibitor, partial curve]
Cc1nnc(NC(=O)c2nc(S(=O)(=O)Cc3ccccc3)ncc2Cl)s1 |  | inconclusive: 3.16 µM [inhibitor, full curve]
O=C(NC(O)C(=O)c1ccccc1)c1cccs1 (configuration not stated) |  | inconclusive: 28.2 µM [inhibitor, single point]
COc1ccccc1-[n+]1c(C)cc(/C=C2\Sc3ccccc3N2C)cc1C |  | inconclusive: 39.8 µM [inhibitor, single point]
CCOC(=O)c1ccccc1Nc1cn(C(C)=O)c2ccccc12 |  | inconclusive: 28.2 µM [inhibitor, partial curve]
Cc1coc(C)c1C(=O)CC1(O)C(=O)N(CCc2ccccc2)c2ccccc21 (configuration not stated) |  | inconclusive: 39.8 µM [inhibitor, single point]
CCOC(=O)Cc1cc(=O)n2[nH]cc(-c3ccc(Cl)cc3)c2n1 |  | inconclusive: 15.8 µM [inhibitor, partial curve]
N#C/C(=C\c1ccc(-c2cccc([N+](=O)[O-])c2)o1)C(=O)NCCN1CCOCC1 |  | inconclusive: 14.1 µM [inhibitor, partial curve]
COc1ccc(/C=C2\NC(=S)N(CC3CCCO3)C2=O)c(OC)c1C (configuration not stated) |  | inconclusive: 28.2 µM [inhibitor, partial curve]
Cc1ccc(NC(=O)CSc2nc3c(c(=O)[nH]2)CN(Cc2ccc4c(c2)OCO4)CC3)cc1C | inactive: 5.2% | 
CCOC(=O)C1CCCN(c2ncnc3c2cnn3-c2ccc(C)c(Cl)c2)C1 (configuration not stated) |  | inconclusive: 1.78 µM [inhibitor, full curve]
Cc1cccc(-c2n[nH]c(=S)n2/N=C/C=C/c2ccco2)c1 |  | inconclusive: 17.8 µM [inhibitor, partial curve]
COC(=O)c1sccc1NC(=O)CN1CCN(c2ccc(F)cc2)CC1 |  | inconclusive: 25.1 µM [inhibitor, single point]
O=C(O)c1ccc2c(c1)C(=O)/C(=C/c1ccccc1)C2=O |  | inconclusive: 12.6 µM [inhibitor, partial curve]
O=C(/C=C/c1ccco1)Nc1ccc2nn(-c3ccccc3)nc2c1 |  | inconclusive: 0.562 µM [inhibitor, full curve, poor fit]
COc1cc(/C=N/Nc2ccc(Cl)cc2)ccc1OC(=O)c1cccs1 |  | inconclusive: 11.2 µM [inhibitor, partial curve, poor fit]
